From PubChem BioAssay AID1508624 (National Center for Advancing Translational Sciences (NCATS), 2021)
Out of some 48,000 compounds screened, about 120 (0.25%) were called active. Inconclusive results (about 4%) are left out. The call rests on the fitted dose curve; in most records, active means well fitted activation curve with a large enough effect; inconclusive means small, poorly fitted or top-dose-only effect, or another doubt; inactive means no such curve, though single readings can be large or run the other way. The list shows a part of the results.

Test: Primary qHTS for Identification of Small Molecule Activators of Huntingtin-Antisense Promoter Activity; further: nearly all actives have a fitted effect of over 55% in size
Details: HEK293 HTT-AS promoter firefly luciferase reporter, 24 h; series mostly up to 57.5 µM; activity change, positive = activation: at the top concentration
How it was run: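 HEK293 cells carrying firefly luciferase reporters were seeded at 2,500 per well in Opti-MEM and cultured for 24 h. They were then treated with compounds at up to 57.5 uM final for 24 h at 37 degrees C before Dual-Glo luminescence readout.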

Activity change, positive = activation, inactive:
COc1ccc(C)cc1NC(=O)CN(C)S(=O)(=O)c1ccc2[nH]c(=O)oc2c1 -12.6%
CCc1ccc(-c2[nH]nc3nc(-c4cc(OC)ccc4OC)cc(C(=O)O)c23)cc1 -11.3%
COC(=O)c1sccc1S(=O)(=O)N(CC(=O)Nc1cc(F)ccc1F)c1ccc(C)c(C)c1 -7.58%
Cn1nc(C(=O)NCc2ccccc2Cl)c2c1-c1ccccc1SC2 4.91%
CCN(CC)c1nn2c(=O)c(C(=O)NCc3ccccc3Br)cnc2s1 -14.9%
CCOc1ccc(NC(=O)N2CCN(C(=O)c3nsc4ccccc34)CC2)cc1 -14.5%
O=C(NCCc1ccc(Cl)cc1)c1cc2c(s1)-c1ccccc1OC2 -22.4%
Cc1cccc(NC(=O)c2ccc(Cn3nc(N4CCN(c5ccccc5)CC4)ccc3=O)o2)c1C -42.3%
COc1ccc(CCNC(=O)c2ccc3c(c2)CCN3S(=O)(=O)c2ccc(C)cc2)cc1OC -35.5%
COc1ccc(-c2cc(C(F)(F)F)nc(SCC(=O)N(C)Cc3ccccc3)n2)cc1 -36.8%
CC(=O)N1CCc2c(sc(NC(=O)CSc3ccc(F)cc3)c2-c2nc3ccccc3s2)C1 -47.4%
Cc1ccc(Cn2c(CO)cnc2SCC(=O)Nc2cccc(F)c2)cc1 -18%
COc1ccc(-c2noc(-c3ccc(NCCc4ccccc4)c([N+](=O)[O-])c3)n2)cc1 0.466%
O=C(Cn1cc(S(=O)(=O)Cc2ccccc2Cl)c2ccccc21)Nc1ccc(F)cc1F -23.7%
CCOc1ccc(CNC(=O)c2ccc3c(c2)N(Cc2ccccc2)CCS3)cc1 -27.3%
CCOc1ccc(S(=O)(=O)N2CCC(n3c(C)nc4cccnc43)CC2)cc1 -24.5%
COC(=O)c1ccc2c(c1)N(Cc1cc(C)ccc1C)C(=O)c1ccccc1S2(=O)=O -33.7%
O=C(Cn1ncc2c(Cl)cccc21)NCc1cccc(F)c1 -1.02%
CCn1c(C)c(C)c2cc(C(=O)NCCc3cc(OC)ccc3OC)ccc21 -18.5%
Cc1oc2ncn(CC(C)C)c(=O)c2c1C(=O)NCCCN(C)Cc1ccccc1 0.946%
O=C(Nc1cccc(C(F)(F)F)c1)C1CCCN(S(=O)(=O)c2cccc3nonc23)C1 (stereo not given) -17%
Cc1oc2c(C)c3oc(=O)c(CCC(=O)N4CCCCC4)c(C)c3cc2c1C -19.5%
Cc1cc2oc(C(=O)Nc3ccc(S(=O)(=O)N(C)c4ccccc4)cc3)cc(=O)c2cc1C 14.9%
COc1cc(-c2nnc(SCCOc3ccccc3)o2)cc(OC)c1OC -6.34%
CCOC(=O)Cn1c(=O)oc2cc(S(=O)(=O)Nc3ccccc3F)ccc21 -18.2%
CCOC(=O)c1c(SCC(=O)Nc2cccc(C)c2C)nc(=O)[nH]c1C -12.2%
Cc1c(Cl)cccc1NC(=O)Cn1c(=O)n(Cc2ccco2)c(=O)c2oc3ccccc3c21 -3.82%
COC(=O)c1c(Oc2ccc(Br)cc2)nnc(-c2ccccc2)c1-c1ccccc1 -11.7%
Cc1ccc(CN2CCC(CNC(=O)Nc3cccc(C)c3C)C2)cc1 (stereo not given) -9%
CCc1nc2nc(C)cc(Nc3ccc(F)c(Cl)c3)n2n1 -28.6%
Cc1cccc(C(=O)Nc2ccccc2OCc2cc(=O)n3cc(C)ccc3n2)c1 -3.11%
CC(=O)N1CCCc2cc(S(=O)(=O)N3CCCC(C(=O)Nc4ccc(C)c(F)c4)C3)ccc21 (stereo not given) -35.8%
COc1ccccc1-c1c(C)nn2c(N3CCN(c4ccc(F)cc4)CC3)cc(C)nc12 -8.53%
CCN(CC)CCCNc1oc(-c2ccc(OC)cc2)nc1C#N -10.3%
CC(Oc1ccc(O)cc1)(P(=O)(O)O)P(=O)(O)O -13.1%
CC(C)n1c(=O)c2oc3ccccc3c2n(CC(=O)Nc2ccccc2Cl)c1=O -8.91%
CCOC(=O)c1c(C)[nH]c(C)c1S(=O)(=O)N(C)CC(=O)Nc1ccc(C)c(F)c1 -4.13%
CC(=O)Nc1ccc2nc(SCCOc3ccccc3Cl)sc2c1 -5.43%
CCCCN(c1ccccc1)c1ncnc2c1cnn2-c1cccc(C)c1 20.6%
COC(=O)c1cc2sccc2n1Cc1nc(-c2ccc(C)cc2)oc1C -15.8%
Cc1cc(C)c(NC(=O)C2CCCN(C(=O)c3cnn(-c4ccccc4)c3-n3cccc3)C2)c(C)c1 (stereo not given) -29.6%
CCc1ccccc1NC(=O)c1ccc2c(c1)c(C)c(C)n2Cc1ccccc1 -14.9%
CN(C(=O)CSc1nc2ccccc2n1CC(=O)N(C)C1CCCCC1)c1ccc(F)cc1 -13.1%
O=C(COc1ccc(Br)cc1)Nc1ccc(C(=O)OC2CCCCC2)cc1 7.23%
CCOc1ccc(NC(=O)Cn2c(=O)n(-c3ccccc3)c(=O)c3c4c(sc32)CCCC4)cc1 -4.16%
COc1ccc(NC(=O)CCc2c(C)nc3cc(-c4cccc(F)c4)nn3c2C)cc1Cl -66%
CCc1nnc2c3ccccc3nc(N3CCN(c4cc(Cl)ccc4C)CC3)n12 -13.5% [at 11.5 µM, percent change from vehicle, -100% = no light]
CCc1ccc(-c2[nH]c3c(c2-c2c(-n4cccc4)n(C)c(=O)[nH]c2=O)c(=O)[nH]c(=O)n3C)cc1 -3.02%
O=C(Nc1nnc(S(=O)(=O)N2CCCCC2)s1)c1ccc(Cl)cc1 -17%
O=C1NC(=O)C(c2ccccc2[N+](=O)[O-])=C1Nc1ccc(O)c(Cl)c1 -28.2%
CC(=O)Nc1ccc(NS(=O)(=O)c2ccc3c(c2)CCCN3C(C)=O)cc1 -7.67%
COc1ccc(-n2ncc(C(=O)Nc3ccc(C)cc3Cl)c2C2CCN(C(=O)OC(C)(C)C)CC2)cc1 -27.2%
O=S(=O)(NCCc1csc(-c2ccc(F)cc2)n1)c1ccc(F)cc1F -43.9%
COc1ccc(N2CC(NC(=O)c3cccs3)CC2=O)cc1OC (stereo not given) -19.7%
O=C(Nc1ccc(F)cc1)c1ccc(-n2cnnc2)cc1 -12.3%
CCOC(=O)c1cc(-c2ccc(C)cc2)n(CCC(=O)NCc2ccccc2)c1C -28.5%
Cc1ccc(-c2nc3scc(CCNS(=O)(=O)c4ccc(C)c(C)c4)n3n2)cc1 -20.1%
Cc1cccc(OCC(=O)Nc2ccc(C(=O)OCc3cc(=O)n4nc(C5CC5)sc4n3)cc2)c1 -0.419%
COC(=O)c1ccc(NC(=O)CSc2ccc(-c3cccs3)nn2)cc1 -7.74%
CCc1ccc(NC(=O)C(Cc2ccccc2)NS(=O)(=O)c2ccc3c(c2)CCN3C(C)=O)cc1 (stereo not given) -19.9%
Cc1cc(C)c(NC(=O)c2cc(CN3CCOCC3)on2)c(C)c1 -10.1%
COc1ccc2cc(S(=O)(=O)c3ccccc3F)c(=O)oc2c1 -60.9%
CCCc1ncc(C[n+]2ccccc2C)c(N)n1 -7.27%
C#CCOc1ccc(C2C(C(=O)OC)=C(C)NC3=C2C(=O)c2ccccc23)cc1OCC (stereo not given) -26.8%
CCOc1ccc(Sc2cc(C(=O)NCCCOC)c3ccccc3n2)cc1 -24.9%
CCN(CC)CCNC(=O)C1CCCN(c2nnc(C)c3c(C)n(-c4ccc(Cl)cc4)nc23)C1 (stereo not given) -23%
CCOc1ccc(NC(=O)CSc2nnc(CC)c(CC)n2)cc1 -4.96%
CCOc1ccc(-c2cn3c(n2)sc2cc(C(=O)NCCC4=CCCCC4)ccc23)cc1 6.02%
Cc1cccc(C)c1NC(=O)C1CCCN(S(=O)(=O)c2c(C)noc2/C=C/N(C)C)C1 (stereo not given) -12.1%
COc1ccccc1CNC(=O)c1ccc(NC(=O)N2CC(C)Sc3ccccc32)cc1 (stereo not given) -16.8%
COc1ccc(S(=O)(=O)NCC(c2ccco2)S(=O)(=O)c2ccc(C)cc2)cc1C (stereo not given) -17.4%
Cc1ccc(-c2cc(C(=O)Oc3ccccc3)c3cccc(C)c3n2)cc1 -14.3%
Cc1sc(-c2cc3ccccc3oc2=O)nc1-c1ccc(Cl)cc1 24.2%
COC(=O)c1cc(S(=O)(=O)N2CCN(c3ccc(C)cc3C)CC2)cn1C -10.5%
O=C1CC(c2ccccc2)Cc2[nH]c(=O)c(-c3nc(-c4ccc(F)cc4)cs3)cc21 (stereo not given) -18.4%
CC(C)Oc1ccc(CNC(=O)C2COc3ccccc3C2)cc1 (stereo not given) 14.6%
O=C(CN1C(=O)COc2ccc(S(=O)(=O)N3CCCC3)cc21)N1CCN(c2ccccc2F)CC1 -12.4%
Cc1ccccc1-c1nc(CS(=O)CC(=O)NCCc2ccc(Cl)cc2)c(C)o1 (stereo not given) -24.5%
CCOC(=O)c1cnc2ccc(OCC)cc2c1N1CCN(c2cccc(Cl)c2)CC1 -27.3%
O=C1CN(C(=O)C2CCCCC2)C(c2ccccc2)c2cc(F)ccc2N1 (stereo not given) -4.44%
CCOc1ccc(C2c3c(oc4ccc(C)cc4c3=O)C(=O)N2c2nc(C)c(C)s2)cc1OC (stereo not given) -4.39%
COc1ccc(-c2noc(-c3ccc(N4CCCCC4)c([N+](=O)[O-])c3)n2)cc1 -11%
CCCCCCOc1ccc(-c2nc3ccc(Br)cc3c(=O)o2)cc1 -4.04%
COC(=O)c1ccccc1NC(=O)Nc1cccc(OCc2cc(=O)n3cccc(C)c3n2)c1 -14.5%
CN1CCN(C(=O)c2cnn(-c3cccc(F)c3)c2C2CCN(C(=O)OC(C)(C)C)CC2)CC1 0.0086%
Cc1ccc(C)c(CSc2c(C(C)C)cnc3c2c(=O)n(C)c(=O)n3C)c1 -30.9%
Cc1csc2nc(COc3ccc(NC(=O)COc4ccc(F)cc4)cc3)cc(=O)n12 -1.39%
COc1ccc(N2CCN(C(CNC(=O)c3ccc(C)cc3)c3ccc4c(c3)OCO4)CC2)cc1 (stereo not given) -32.3%
Cc1cc2c(cc1NC(=O)c1ccc(C(C)(C)C)cc1)n(C)c(=O)c(=O)n2C -20.5%
CCOc1ccccc1CNC(=O)c1nn(C)c2c1CS(=O)(=O)c1ccccc1-2 -23%
COc1ccc(Cl)cc1NC(=O)CSc1nnc(C)n2c1cc1occc12 -6.41%
Cc1ccc(CCNC(=O)CN2C(=O)COc3ccc(S(=O)(=O)N4CCC(C)CC4)cc32)cc1 -25.2%
CCN1CCN(C(c2cccc(Cl)c2)c2c(O)cc(C)n(CCOC)c2=O)CC1 (stereo not given) -2.29%
Cc1cc(OCC(=O)NCC2(N(C)C)CCCCC2)cc(C)c1Cl -3.56%
COc1cccc(C2=NS(=O)(=O)N(C)C(C(=O)Nc3cccc(O)c3)=C2)c1 -23.3%
